B1: LINE1-full (parent)
chain: UACGUAGGUGGUUUUCCCCUGAUAGUGCUAAGGGGGCCUGGAAGUUUGGACUGGGCAGAGCUCAACACAGCGUGGCAAAGUGGCUGUGGCUAGACUGCCUCUCUGGAUUCCUCGUCACUCAGCAGGGCAUCUCUGAGAGAAAUGCC

The source gives no read counts; variants with many changes may rest on few reads.

This series covers variants of B1. The experiment in a line: self-cleavage, relative activity (ratio to wild type); higher = more cleavage; in vitro, sequencing; the parent is a self-cleaving ribozyme.
UACGUAGGUGGUUUUCCCCUGAUAGUGCUAAGGGGGCCCGGAGGUUUGGACUGGGCAGAGCUCAACACAGCGUGGCAAAGUGGCUGUGGCUAGACUGCCUCUCUGGAUUCCUCGACACUCAGCAGGGCAUCUCUGAGAGAAGUGCC [U39C A43G U115A A142G]: the self-cleavage was found to be 2.3.

Take UACGUAGGUGGUUUUCCCCUGAUAGUGCUAAGGGGGCCCGGAAGUUUGGACUGGGCAGAGCUCAACACGGCGUGGCAAAGUGGCUGAGGCUAGACUGCCCCUCUGGAUUCCUCGUCACUCAGCAGGGCAUCUCUGAGAGAAAUGCC [U39C A69G U87A U100C]: the self-cleavage worked out at 0.

As to UACGUAGGUGGUUUUCCCCUGAUAGUGCUAAGGGGGCCCGGAAGUUUGGACUGGGCAGAGCUCAACACAGCGUGGCUAAGUGGCUGUGGCUAGACUGCCUCUCUGGAUACCUCGCCACUCAGCAGGGCGUCUCUGAGAGGAAUGCC [U39C A77U U109A U115C A129G A140G], the self-cleavage amounted to 0.23.

Take UACGUAGGUGGUUUUCCCCUGAUAGUGCUAAGGGGGCCCGGAAGUUUGGACUGGGCAGAGCUCGACACUGCGUGGCAGAGUGGCUGUGGCUAGACUGCCUCUCUGGAUUCCUCGUCACUCAGCAGGGCAUCUCCGAGAGAAAUGCC [U39C A64G A69U A78G U134C]: the self-cleavage turned out to be 0.

As for UACGUAGGUGGUUUUCCCCUGAUAGUGCUAAGGGGGCCCGGAGGUUUGGACUGGGCAGAGCUCAACACAGCGUGGCUAAGUGGCUGUGGCUAGACUGCCUCUCUGGAUUCCUCGUCACUCAGCAGGGCAUCCCUGAGAGAGAUGCC [U39C A43G A77U U132C A141G], the self-cleavage is 1.02.

For UACGUAGGUGGUUUUCCCCUGAUAGUGCUAAGGGGGCCCGGAAGUUUGGACUGGGCAGAGCUCAACACAGCGUGGCAAAGUGGCUGUGGCUAGGCUGCCUCUCUGGAUUCCUCGUCGCUCAGCAGGGCAUCUCUGAGAGAAAUGCC [U39C A94G A117G], the self-cleavage was determined as 0.46.

On to UACGUAGGUGGUUUUCCCCUGAUAGUGCUAAGGGGGCCCGGAAGUUUGGACUGGGCAGAGCUCAACACAGCGUGGCAAGGUGGCUGUGGCUAGACUGCUUCUCUGGAUUCCUCGUCACUCGGCAGGGCACCUCUGAGAGAAAUGCC [U39C A79G C99U A121G U130C], for which the self-cleavage was found to be 0.72.

With UACGUAGGUGGUUUUCCCCUGAUAGUGCUAAGGGGGCCCGGAAGUUUGGACUGGGCAGAGCUCAACACAGCGUGGCGAAGUGGCUGUGGCUAGACUGCCUCUCUGGACUCCUCGUCACUCAGCAGGGCAUCUCUGAGAGAAAAGCC [U39C A77G U108C U143A], the self-cleavage stood at 2.04.

With UACGUAGGUGGUUUUCCCCUGAUAGUGCUAAGGGGGCCCGGGAGCUUGGACUGGGCAGAGCUCAACACAGCGUGGCAAAGUGGCUGUAGCUAGACUGCCUCUCUGGAUUCCUCGUCACUCAGCAGGGCAUCUCUGAGAGAAAUGCC [U39C A42G U45C G88A], the self-cleavage was 0.24.

In the case of UACGUAGGUGGUUUUCCCCUGAUAGUGCUAAGGGGGCCAGGAAGUUUGGACUGGGCAGAGCUCAACACAGCGUGGCAAAGUGGCUGUGGCUAGACUGCCUCUCUGGAUUCCACGUCACUCAGCAGGGCAUCUCUGAGAGGAAUGCC [U39A U112A A140G], the self-cleavage was 1.59.

For UACGUAGGUGGUUUUCCCCUGAUAGUGCUAAGGGGGCCAGGAAGUUUGGACUGGGCAGAGCUCAACACAGCGUGGCAAAGUGGCUGUGGCUAGACUGCCUCUCUGGAUUCCUCGCCUCUCAGCAGGGCAUCUCUGAGAGAAAUGCC [U39A U115C A117U], the self-cleavage turned out to be 1.59.

Consider UACGUAGGUGGUUUUCCCCUGAUAGUGCUAAGGGGGCCAGGAAGUUUGGACUGGGCAGAGCUCAACACAGCGUGGCAAAGUGGCUGUGGCUAGACUGCCUCUCUGGAUUCCCCGUCACUAGGCAGGGCAUCUCUGAGGGAAAUGCC [U39A U112C C120A A121G A138G], for which the self-cleavage was 2.17.

Regarding UACGUAGGUGGUUUUCCCCUGAUAGUGCUAAGGGGGCCCGGAAGUUUGGGCUGGGCAGAGCUCAACACAGCGUGGCAAAGUGGCUGUGGCUAGACUGCCCCUCUGGAUUCCUCGUCACUCAGUAGGGCAUCUCUGAGAGAAAUGCC [U39C A50G U100C C123U], the self-cleavage was 0.96.

With UACGUAGGUGGUUUUCCCCUGAUAGUGCUAAGGGGGCCCGGAAGUUUGGACUGGGCAGAGCUCGACACAGCGUGGCAAAGUGGCUGUGGCUAGACUGCCUCUCUGGAUUCCUCGUCACUCAGCAGGGCAUCUCUGAGAUAAAUGCC [U39C A64G G139U], the self-cleavage came to 0.21.

Turning to UACGUAGGUGGUUUUCCCCUGAUAGUGCUAAGGGGGCCCGGAAGUUUGGACUGGGCAGAGCUCAACACAGCGUGGCAAAGUGGCUGUGGCUAGGCUGCCUCUCUGGAUUCCUCGCCACUCAGCAGGGCAUCUCUGAGAGAAAUGCC [U39C A94G U115C], the self-cleavage was found to be 0.

In the case of UACGUAGGUGGUUUUCCCCUGAUAGUGCUAAGGGGGCCCGGUAGUUUGGACUGGGCAGAGCUCAACACAGCGUGGCAAAGUGGCUGUGGCUAGACUGCCUCUCUGGAUUCCUCGUCACUCGGCAGGGCAUCUCUGAGAGAAAUGCC [U39C A42U A121G], the self-cleavage amounted to 0.79.

As for UACGUAGGUGGUUUUCCCCUGAUAGUGCUAAGGGGGCCCGGAAGUUUGGACUGGGCAGAGCUCAACACAGCGUGGCAAAGUGGCUGUGGCUAGACUGCCUCUCUGGGUUCCUCGUCCCUCAGCAGGGCAUCUCUGAGAGAAAUGCC [U39C A107G A117C], the self-cleavage was 1.15.

Regarding UACGUAGGUGGUUUUCCCCUGAUAGUGCUAAGGGGGCCAGGAAGUUUGGACUGGGCAGAGCUCAACACAGCGUGGCAAAGUGGCUGUGGCUAGACUGCCCCUCUGGAUUCCUCGUCACUCAGCAGGGCCUCUCUGAGAGAAAUGCC [U39A U100C A129C], the self-cleavage worked out at 0.98.

Turning to UACGUAGGUGGUUUUCCCCUGAUAGUGCUAAGGGGGCCCGGAAGUUUGGACUGGGCAGAGCUCUACACAGCGUGGCAAGGUGGCUGUGGCUAGACUGCCUCUCUGGAUUCCUCGUCACUCAGCAGGGCAUCUCUGAGAGAAAUGCC [U39C A64U A79G], the self-cleavage is 0.45.

For the variant UACGUAGGUGGUUUUCCCCUGAUAGUGCUAAGGGGGCCCGGGAGUUUGGACUGGGCAGAGCUCAACACAGCGUGGCAAAGUGGCUGUGGCUAGACUGCCUCUCUGGAUUCCUCGUCACUCAGCAGGGCAUCUCUGAGAGAGAUGCC [U39C A42G A141G], the self-cleavage came to 0.57.

Source of the values: the RNAGym collection of RNA variant scans (doi:10.7554/elife.90254).
